Reference: PubChem BioAssay AID504466 (National Center for Advancing Translational Sciences (NCATS), 2011)
About 4,200 (1.3%) of roughly 330,000 compounds were called active. The inconclusive results got no clear call from the source; some entries with a clear call stand among them for comparison. The call rests on the fitted dose curve; in most records, active means well fitted activation curve with a large enough effect; inconclusive means small, poorly fitted or top-dose-only effect; inactive means no such curve, though single readings can be large or run the other way. Potencies of inconclusive entries are doubtful fits and often do not repeat.

Assay: qHTS screen for small molecules that induce genotoxicity in human embryonic kidney (HEK293T) cells expressing luciferase-tagged ELG1; further: nearly all actives have a fitted effect of over 60% in size
Details: HEK293T ELG1-luciferase reporter, luminescence, 16 h; series mostly up to 46 µM
Summary of the method: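 ELG1-luciferase HEK293T cells, 2,000/well; compound pinned in; 16 hr, 37 °C, 5% CO2; ONE-Glo, 30 min RT; luminescence on CCD imager.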
Potency means the concentration at half of the fitted maximal effect; tags describe the fitted curve by direction and shape.

Compound	Potency
Nc1ccc(CSc2ccc(Cl)cc2)cc1	inconclusive: 14.1 µM [activator, partial curve, poor fit]
Cc1cc(/C=C(\C#N)C(=O)O)c(C)n1-c1ccc(Br)cc1	inactive
O=C(NC1CCC(O)CC1)c1ccc(NS(=O)(=O)c2cccc([N+](=O)[O-])c2)cc1 (centres undefined)	inactive
O=C(CCc1c[nH]c2ccccc12)NCCc1ccc2c(c1)OCCO2	inconclusive: 14.6 µM [activator, partial curve, poor fit]
COc1ccc(C)c2sc(=NC(=O)c3cccc(N4C(=O)CCC4=O)c3)n(C)c12	inconclusive: 11.6 µM [activator, partial curve]
CC(C(=O)Nc1ccc(S(=O)(=O)N2CCCC2)cc1)N1CCc2ccccc2C1 (centres undefined)	inactive
O=C(NCCc1ccccc1)Oc1ccc(Cl)cc1	inconclusive: 23.1 µM [activator, single point]
COc1cccc(N2CC(C(=O)Nc3nnc(SCC(=O)NC4CCCC4)s3)CC2=O)c1 (centres undefined)	inactive
O=C1c2ccccc2-c2ccc(C(=O)N3CCCCC3)cc21	inconclusive: 25.9 µM [activator, partial curve, poor fit]
COc1ccc(CNC(=O)c2cc(=O)c3cc(C)cc(C)c3o2)cc1	inconclusive: 29.1 µM [activator, single point]
CCC1CCCCN1CCCNC(=O)Cn1ncn2nc(-c3ccc(OC)cc3)cc2c1=O (centres undefined)	inconclusive: 16.4 µM [activator, partial curve, poor fit]
CCn1c(C)nc2cc(C(=O)N/N=C/c3cccc(O)c3O)ccc21	inconclusive: 18.3 µM [activator, single point]
CC1CCN(C(=O)COC(=O)CCCN2C(=O)c3cccc4cccc(c34)C2=O)CC1	inactive
O=C(CSc1nc(-c2ccccc2)nc2ccccc12)Nc1cccc(C(=O)O)c1	inactive
Cc1c(C(=O)Nc2ccc(Cl)cn2)oc2ccccc12	inconclusive: 18.4 µM [activator, partial curve]
COc1ccc(OC)c2sc(NC(=O)C(C)C)nc12	inconclusive: 23.1 µM [activator, single point]
Cc1nc2nc(-c3ccccc3)cc(=O)n2[nH]1	inconclusive: 35.5 µM [activator, partial curve, poor fit]
CCOC(=O)C1CCCN(C(=O)CCC(=O)Nc2ccc3nc(N4CCOCC4)cc(C)c3c2)C1 (centres undefined)	inconclusive: 20.6 µM [activator, partial curve, poor fit]
CC(=O)Nc1nc2cc3c(cc2s1)OCCO3	inconclusive: 5.17 µM [activator, partial curve]
